In test [1] the target is T1, BCL10 WT (3xFLAG-BCL10 WT and HA-BCL10 WT) (UniProt O95999).
T1 sequence: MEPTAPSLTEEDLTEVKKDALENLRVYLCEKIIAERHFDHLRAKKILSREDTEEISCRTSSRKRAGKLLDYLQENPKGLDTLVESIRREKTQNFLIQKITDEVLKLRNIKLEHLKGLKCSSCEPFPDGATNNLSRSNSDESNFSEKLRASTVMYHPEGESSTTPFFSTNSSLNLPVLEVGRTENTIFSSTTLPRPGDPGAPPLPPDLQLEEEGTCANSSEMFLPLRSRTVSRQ
Briefly: co-IP; HEK293T cells, transient co-expression of Flag-tagged BCL10 (WT or mutant) with HA-BCL10 WT or HA-MALT1 WT; lysis in co-IP buffer (25 mM HEPES pH 7.5, 150 mM NaCl, 0.2% NP-40, 10% glycerol, 1 mM DTT); anti-Flag-M2 IP overnight at 4 °C, Protein G Sepharose; Western blot.

Amino acid sequences for entries named in this document (tags omitted).
UniProt Q9UDY8: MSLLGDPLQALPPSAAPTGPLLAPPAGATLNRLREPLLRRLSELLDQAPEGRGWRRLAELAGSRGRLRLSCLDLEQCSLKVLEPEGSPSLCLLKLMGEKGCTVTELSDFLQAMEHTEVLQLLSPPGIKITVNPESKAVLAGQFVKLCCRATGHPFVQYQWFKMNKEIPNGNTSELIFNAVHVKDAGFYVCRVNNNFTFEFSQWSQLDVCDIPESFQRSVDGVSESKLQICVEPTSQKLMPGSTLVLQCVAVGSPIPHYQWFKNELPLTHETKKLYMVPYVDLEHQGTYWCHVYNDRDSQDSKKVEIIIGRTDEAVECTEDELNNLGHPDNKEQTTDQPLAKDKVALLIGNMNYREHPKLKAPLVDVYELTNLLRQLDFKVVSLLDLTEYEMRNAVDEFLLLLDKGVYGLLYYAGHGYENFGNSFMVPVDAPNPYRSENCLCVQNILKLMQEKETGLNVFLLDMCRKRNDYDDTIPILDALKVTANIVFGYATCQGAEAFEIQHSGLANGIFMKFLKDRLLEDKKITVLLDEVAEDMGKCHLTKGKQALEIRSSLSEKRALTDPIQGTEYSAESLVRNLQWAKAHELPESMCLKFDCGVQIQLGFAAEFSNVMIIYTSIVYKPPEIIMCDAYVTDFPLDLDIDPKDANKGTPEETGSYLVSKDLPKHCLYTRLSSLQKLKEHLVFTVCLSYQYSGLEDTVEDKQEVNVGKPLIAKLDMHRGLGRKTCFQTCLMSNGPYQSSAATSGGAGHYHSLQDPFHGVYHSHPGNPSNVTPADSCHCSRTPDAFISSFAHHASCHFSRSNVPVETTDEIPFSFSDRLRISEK

Test [2] deals with T2, Flag-tagged BCL10 KKK17/31/63RRR (UniProt O95999).
T2 sequence: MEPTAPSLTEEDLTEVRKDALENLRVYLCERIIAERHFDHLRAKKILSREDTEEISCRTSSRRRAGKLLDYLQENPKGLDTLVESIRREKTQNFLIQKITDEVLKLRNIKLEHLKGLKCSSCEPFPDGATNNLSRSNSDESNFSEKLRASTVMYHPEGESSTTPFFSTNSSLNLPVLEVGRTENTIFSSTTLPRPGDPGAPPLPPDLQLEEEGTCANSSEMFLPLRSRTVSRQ
The description is as above.

For test [3], the target named is T3, Flag-Strep-tagged (ST) BCL10 WT (UniProt O95999).
T3 sequence: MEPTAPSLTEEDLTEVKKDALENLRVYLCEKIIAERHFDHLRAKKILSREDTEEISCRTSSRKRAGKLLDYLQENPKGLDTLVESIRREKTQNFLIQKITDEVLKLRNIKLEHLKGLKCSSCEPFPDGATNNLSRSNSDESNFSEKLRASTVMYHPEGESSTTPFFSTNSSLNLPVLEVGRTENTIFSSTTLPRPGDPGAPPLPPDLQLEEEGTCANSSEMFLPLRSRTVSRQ
Description: pull-down; BCL10 KO Jurkat T cells reconstituted with Strep-tagged BCL10 WT or mutants, untreated or stimulated with P/I; 3 x 10^7 cells lysed in co-IP buffer; Strep-Tactin Sepharose pulldown (Strep-PD) at 4 °C overnight; endogenous MALT1 and CARD11 detected by Western blot. A general note: In western blotting, separated proteins are transferred to a membrane and probed.

In test [4] the target is T4, BCL10 5xK/R (K90, K98, K105, K110, K115 to R) (UniProt O95999).
T4 sequence: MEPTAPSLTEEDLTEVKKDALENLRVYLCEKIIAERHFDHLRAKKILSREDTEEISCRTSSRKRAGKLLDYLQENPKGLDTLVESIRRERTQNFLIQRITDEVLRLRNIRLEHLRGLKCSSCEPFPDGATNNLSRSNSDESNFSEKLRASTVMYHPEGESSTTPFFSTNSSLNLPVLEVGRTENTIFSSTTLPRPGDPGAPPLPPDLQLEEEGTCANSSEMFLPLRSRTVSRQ
The test is described as above.

A further test concerns the target T5, BCL10 KK118/146RR (UniProt O95999).
T5 sequence: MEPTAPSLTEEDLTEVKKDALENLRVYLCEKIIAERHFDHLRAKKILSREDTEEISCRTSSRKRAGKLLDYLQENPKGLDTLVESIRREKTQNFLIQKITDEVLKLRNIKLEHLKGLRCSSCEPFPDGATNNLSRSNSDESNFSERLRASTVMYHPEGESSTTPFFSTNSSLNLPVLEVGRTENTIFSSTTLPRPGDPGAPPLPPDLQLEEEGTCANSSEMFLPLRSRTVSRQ
The test is described as above.

Test [5] has as its target T6, BCL10 6xK/R (K90, K98, K105, K110, K115 and K118 to R) (UniProt O95999).
T6 sequence: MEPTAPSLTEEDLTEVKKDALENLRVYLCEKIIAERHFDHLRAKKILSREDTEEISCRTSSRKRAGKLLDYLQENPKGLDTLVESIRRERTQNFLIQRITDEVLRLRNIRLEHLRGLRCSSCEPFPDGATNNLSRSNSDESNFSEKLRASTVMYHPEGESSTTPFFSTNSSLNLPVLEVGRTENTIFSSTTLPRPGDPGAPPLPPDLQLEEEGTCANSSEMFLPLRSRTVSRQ
Described as above.

Test [6] deals with T7, Strep-tagged (ST) BCL10 L104R (UniProt O95999).
T7 sequence: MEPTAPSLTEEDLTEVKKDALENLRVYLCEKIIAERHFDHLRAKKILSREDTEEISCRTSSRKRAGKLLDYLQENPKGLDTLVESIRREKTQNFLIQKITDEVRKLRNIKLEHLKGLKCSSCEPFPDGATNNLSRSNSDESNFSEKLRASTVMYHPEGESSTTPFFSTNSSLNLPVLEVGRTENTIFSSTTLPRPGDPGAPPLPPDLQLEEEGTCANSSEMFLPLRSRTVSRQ
Described as above.

The target in test [7] is T8, Strep-tagged (ST) BCL10 KK31/63RR (UniProt O95999).
T8 sequence: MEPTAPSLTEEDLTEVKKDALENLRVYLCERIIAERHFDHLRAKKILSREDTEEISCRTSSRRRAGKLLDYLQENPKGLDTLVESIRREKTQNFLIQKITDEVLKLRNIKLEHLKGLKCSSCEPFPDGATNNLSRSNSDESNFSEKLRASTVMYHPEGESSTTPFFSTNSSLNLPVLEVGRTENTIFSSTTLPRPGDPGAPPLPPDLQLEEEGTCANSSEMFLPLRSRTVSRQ
The description is as above.

Test [8] addresses T1, BCL10 WT (3xFLAG-BCL10 WT and HA-BCL10 WT). Briefly: co-IP; HEK293T cells, transient co-expression of Flag-tagged BCL10 (WT or mutant) with HA-BCL10 WT or HA-MALT1 WT; lysis in co-IP buffer (25 mM HEPES pH 7.5, 150 mM NaCl, 0.2% NP-40, 10% glycerol, 1 mM DTT); anti-Flag-M2 IP overnight at 4 °C, Protein G Sepharose; Western blot. This is another data set of the same source.
Test [9] concerns the target T9, Flag-tagged BCL10 KK31/63RR (UniProt O95999).
T9 sequence: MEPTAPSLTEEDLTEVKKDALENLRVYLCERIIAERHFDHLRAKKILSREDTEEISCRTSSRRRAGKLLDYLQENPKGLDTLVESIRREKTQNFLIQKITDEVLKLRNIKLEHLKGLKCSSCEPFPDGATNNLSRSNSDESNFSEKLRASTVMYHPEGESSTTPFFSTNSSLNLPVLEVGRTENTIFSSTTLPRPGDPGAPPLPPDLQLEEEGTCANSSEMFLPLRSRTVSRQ
Described as above.

Test [10] concerns the target T10, Flag-tagged BCL10 R42E, O95999.
T10 chain: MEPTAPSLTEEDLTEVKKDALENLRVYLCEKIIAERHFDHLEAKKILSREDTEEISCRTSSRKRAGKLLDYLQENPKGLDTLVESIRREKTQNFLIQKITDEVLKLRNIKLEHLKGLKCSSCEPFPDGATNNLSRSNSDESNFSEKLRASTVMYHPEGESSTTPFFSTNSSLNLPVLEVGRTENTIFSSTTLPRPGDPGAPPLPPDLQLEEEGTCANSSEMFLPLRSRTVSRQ
The test is described as above. Particulars: remark: other sources report otherwise.

Like-named read-outs stand apart in the source and are kept apart here. These are yes or no findings as the source states them, for the method shown. Binding seen in cells or lysates may run through a third protein. Some results given as binding are weak or reduced against the parent protein; the word gives no strength. For some assays here: Sequences can lack the tags named with a protein.

For the molecule “HA-tagged MALT1 WT (from UniProt Q9UDY8 1-824)”, the binding entry in test [1] and in [2] was “binds” throughout.

On to “MALT1 (endogenous, Jurkat T cells) (from UniProt Q9UDY8 1-824)”, for which the binding entry in test [3] is “binds”; in test [4], “binds”; in the test with BCL10 KK118/146RR, “binds”; in test [5] it was “binds”; in test [6], “no binding”; in test [7], “binds”.

B1: BCL10 WT (3xFLAG-BCL10 WT and HA-BCL10 WT) (protein, UniProt O95999 1-233)
chain: MEPTAPSLTEEDLTEVKKDALENLRVYLCEKIIAERHFDHLRAKKILSREDTEEISCRTSSRKRAGKLLDYLQENPKGLDTLVESIRREKTQNFLIQKITDEVLKLRNIKLEHLKGLKCSSCEPFPDGATNNLSRSNSDESNFSEKLRASTVMYHPEGESSTTPFFSTNSSLNLPVLEVGRTENTIFSSTTLPRPGDPGAPPLPPDLQLEEEGTCANSSEMFLPLRSRTVSRQ
For the molecule B1, the binding entry in test [8] and in test [9] was “binds” throughout.

B2: BCL10 WT (3xFLAG-BCL10 WT and HA-BCL10 WT), O95999 1-233 (protein)
chain: MEPTAPSLTEEDLTEVKKDALENLRVYLCEKIIAERHFDHLRAKKILSREDTEEISCRTSSRKRAGKLLDYLQENPKGLDTLVESIRREKTQNFLIQKITDEVLKLRNIKLEHLKGLKCSSCEPFPDGATNNLSRSNSDESNFSEKLRASTVMYHPEGESSTTPFFSTNSSLNLPVLEVGRTENTIFSSTTLPRPGDPGAPPLPPDLQLEEEGTCANSSEMFLPLRSRTVSRQ
As to B2, the binding result in [10] was “binds”.

Values taken from publication PMC12602705.
